Measurements: the supplement of paper PMC4967469
By IC50 is meant the dose at which the fit gives 50% viability; a fit beyond the top or the lowest dose is shown as a bound at that dose. For AUC the same curve is integrated over the 256-fold range of doses and scaled to a fraction; the more sensitive the line, the further below 1. The top dose, if marked as inferred, was derived from the fitted curves, not read from the paper. For some assays here: Drugs with an entry number were screened twice under separate entries, and the two screens often disagree.

Key:
Assay in all cases: Viability of human cancer cell lines after 72 h of drug (GDSC screen)
AZD6482 = compound: Cc1cc([C@@H](C)Nc2ccccc2C(=O)O)c2nc(N3CCOCC3)cc(=O)n2c1 [AZD6482]
Method: (§1)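 Human cancer cell lines in 384-well plates, medium with 10% serum, drug for 72 h over a 256-fold dose range (nine 2-fold or five 4-fold steps up to the top dose). Adherent lines were fixed and stained with the nucleic acid dye Syto60, suspension lines read with resazurin; signal relative to control wells, capped at 0 and 100%. One two-parameter sigmoid per drug and line, fitted in a mixed model over all curves with the slope shared within a line.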

BMN-673 = compound: Cn1ncnc1[C@H]1c2n[nH]c(=O)c3cc(F)cc(c23)N[C@@H]1c1ccc(F)cc1 [BMN-673]; settings: top dose 10 µM; top dose inferred
Method: as §1

MLN4924 = compound: NS(=O)(=O)OC[C@@H]1C[C@@H](n2ccc3c(N[C@H]4CCc5ccccc54)ncnc32)C[C@@H]1O [MLN4924]; settings: top dose 1 µM; top dose inferred
Method: as §1

XMD11-85h = compound: COc1cc(C(=O)NC2CCN(C)CC2)ccc1Nc1ncc2c(n1)N(C1CCCC1)CCC(=O)N2C(C)C [XMD11-85h]; settings: top dose 10 µM; top dose inferred
Method: as §1

[1] = top dose 5 µM, screen: GDSC drug entry 1066, top dose inferred
[2] = top dose 5.12 µM, screen: GDSC drug entry 156

Cell Line	AUC (AZD6482; [1])	IC50 (AZD6482; [1]) [µM]	AUC (AZD6482; [2])	IC50 (AZD6482; [2]) [µM]	AUC (BMN-673)	IC50 (BMN-673) [µM]	AUC (MLN4924)	IC50 (MLN4924) [µM]	AUC (XMD11-85h)	IC50 (XMD11-85h) [µM]
H290 (mesothelioma, adherent)	0.958	> 5	0.983	> 5.12	0.644	1.5	0.586	0.105	0.945	> 10
H513 (mesothelioma, semi-adherent)	0.962	> 5	0.98	> 5.12	0.894	> 10	0.91	> 1	0.984	> 10
H2591 (mesothelioma, adherent)	0.908	> 5	0.933	> 5.12	0.926	> 10	0.719	0.32	0.971	> 10
H2595 (mesothelioma, adherent)	0.981	> 5	0.917	> 5.12	0.885	> 10	0.928	> 1	0.969	> 10
H2731 (mesothelioma, adherent)	0.954	> 5	0.953	> 5.12	0.832	7.74	0.839	0.828	0.968	> 10
H2869 (mesothelioma, adherent)	0.977	> 5	0.964	> 5.12	0.824	7.92	0.819	0.756	0.982	> 10
H3118 (head and neck, adherent)	0.854	4.54	0.899	> 5.12	0.687	2.2	0.681	0.211	0.981	> 10
HARA (lung squamous cell carcinoma, adherent)	0.949	> 5	0.961	> 5.12	0.689	2.34	0.754	0.388	0.921	> 10
HCC202 (breast, adherent)	0.978	> 5	–	–	0.9	> 10	0.921	> 1	0.977	> 10
HCC1428 (breast, adherent)	0.963	> 5	0.963	> 5.12	0.95	> 10	0.483	0.0558	0.981	> 10
HCC1569 (breast, adherent)	0.834	4.93	0.811	3.91	0.743	4.02	0.662	0.206	0.936	> 10
HCC2157 (breast, suspension)	0.625	0.702	0.812	2.91	0.986	> 10	0.983	> 1	0.871	> 10
HCC2218 (breast, suspension)	0.967	> 5	0.963	> 5.12	0.967	> 10	0.978	> 1	0.98	> 10
